Test results taken from patent US10299477B2 (priority 2015, dated 2019).

Legend:
Format in all cases: in vivo
Puccinia recondita = experiment: Test Example E: Brown rust on wheat; settings: for Test E (control value class, brown rust on wheat): in vivo; for Test E control value (brown rust on wheat): preventive, control value class
From the text: [Test Example E] Brown Rust on Wheat

[1] = system: Blumeria graminis f sp. hordei; experiment: Test Example D: Powdery mildew on barley; settings: for Test D (control value class, powdery mildew on barley): in vivo; for Test D control value (powdery mildew on barley): preventive, control value class
From the text: [Test Example D] Powdery Mildew on Barley
After the sprayed dilutions were dried, conidia of Blumeria graminis f sp. hordei were inoculated to the plants by shaking off.

Alternaia brassicicola = experiment: Test Example C: Alternaria sooty spot on cabbage; settings: for Test C (control value class, Alternaria sooty spot on cabbage): in vivo; for Test C (control value class) / Test C control value: Alternaria sooty spot on cabbage; for Test C control value (Alternaria sooty spot on cabbage): preventive, control value class
From the text: [Test Example C] Alternaria Sooty Spot on Cabbage
Seeds of a test plant (cabbage variety: Shikidori) were planted followed by cultivating until the cotyledons extended.

Botrytis cinerea = experiment: Test Example B: Gray mold on tomato; settings: for Test B (control value class, gray mold on tomato): in vivo; for Test B control value (gray mold on tomato): preventive, control value class
From the text: [Test Example B] Gray Mold on Tomato
Seeds of a test plant (tomato variety: Oogata Fukuju) were planted followed by cultivating until three to five first leaves (true leaves) appeared.

Plasmopara viticola = experiment: Test Example G: Downy mildew on vine; settings: for Test G (control value class, downy mildew on vine): 250 ppm, sprayed 2.5 ml/pot before inoculation; for Test G (control value class): 250 ppm spray; for Test G control value (downy mildew on vine): 250 ppm spray (2.5 ml/pot), preventive, control value class; for Test G control value: 250 ppm sprayed before inoculation
From the text: [Test Example G] Downy Mildew on Vine
Seeds of a test plant (grape variety: Neomuscat) were planted followed by cultivating until three to four first leaves appeared. […] After the sprayed dilutions were dried, a zoosporangia suspension (1-2×10^4 zoosporangia/ml) of Plasmopara viticola was inoculated to the plants by spraying.

[2] = evaluated 7-10 days after inoculation
[3] = brown rust on wheat, Puccinia recondita, 250 ppm spray
[4] = powdery mildew on barley, 250 ppm spray
[5] = gray mold on tomato, Botrytis cinerea, 250 ppm spray
[6] = downy mildew on vine, Plasmopara viticola, 7-10 days after inoculation
[7] = Downy mildew on vine, 7-10 days after inoculation

CCn1c(-c2c(F)cc(OC)cc2F)c(-c2cc(F)cc(F)c2Cl)cc(C)c1=O [Compound 714]
Test E (control value class, brown rust on wheat) (Puccinia recondita): H (H shows more than 50% of control values)
Test D (control value class, powdery mildew on barley) [1]: H (H shows more than 50% of control values)
Test C (control value class, Alternaria sooty spot on cabbage) (Alternaia brassicicola): H (H shows more than 50% of control values)
Test B (control value class, gray mold on tomato) (Botrytis cinerea): H (H shows more than 50% of control values)
Test G (control value class, downy mildew on vine) (Plasmopara viticola; [2]): H (H shows more than 50% of control values)

CCn1c(-c2c(F)cccc2F)c(-c2cc(F)ccc2F)cc(C)c1=O [Compound 497]
Test E (control value class) (Puccinia recondita; [3]): H (H shows more than 50% of control values)
Test D (control value class) [1, 4]: H (H shows more than 50% of control values)
Test C (control value class) (Alternaia brassicicola; 250 ppm spray): H (H shows more than 50% of control values)
Test B (control value class) (Botrytis cinerea; [5]): H (H shows more than 50% of control values)
Test G (control value class) (Plasmopara viticola; [6]): L (L shows 50% or less of control values)

Cn1c(-c2c(F)cccc2F)c(-c2cc(Cl)ccc2Cl)cc(Cl)c1=O [Compound 447]
Test E (control value class) (Puccinia recondita; [3]): H (H shows more than 50% of control values)
Test D (control value class) [1, 4]: H (H shows more than 50% of control values)
Test C (control value class) (Alternaia brassicicola; 250 ppm spray): H (H shows more than 50% of control values)
Test B (control value class) (Botrytis cinerea; [5]): H (H shows more than 50% of control values)
Test G (control value class) (Plasmopara viticola; [6]): L (L shows 50% or less of control values)

CCN1C(=O)CCC(c2ccccc2Br)=C1c1c(F)cc(F)cc1F [Compound 650]
Test E (control value class, brown rust on wheat) (Puccinia recondita): H (H shows more than 50% of control values)
Test D (control value class, powdery mildew on barley) [1]: H (H shows more than 50% of control values)
Test C (control value class, Alternaria sooty spot on cabbage) (Alternaia brassicicola): H (H shows more than 50% of control values)
Test B (control value class, gray mold on tomato) (Botrytis cinerea): H (H shows more than 50% of control values)
Test G (control value class, downy mildew on vine) (Plasmopara viticola; [2]): L (L shows 50% or less of control values)

CCN1C(=O)CCC(c2cccc(OC(F)(F)F)c2)=C1c1c(F)cccc1F [Compound 208]
Test E control value (brown rust on wheat) (Puccinia recondita; 250 ppm spray): L (L shows 50% or less of control values)
Test D control value (powdery mildew on barley) ([1]; 250 ppm spray): L (L shows 50% or less of control values)
Test C control value (Alternaria sooty spot on cabbage) (Alternaia brassicicola; 250 ppm spray): L (L shows 50% or less of control values)
Test B control value (gray mold on tomato) (Botrytis cinerea; 250 ppm spray): L (L shows 50% or less of control values)
Test G control value (downy mildew on vine) (Plasmopara viticola; 7-10 days after inoculation): L (L shows 50% or less of control values)

CCn1c(-c2c(F)cccc2F)c(-c2cc(OC)cc(OC)c2Cl)ccc1=O [Compound 32]
Test E control value (Puccinia recondita; Brown rust on wheat): H (H shows more than 50% of control values)
Test D control value ([1]; Powdery mildew on barley): H (H shows more than 50% of control values)
Test C control value (Alternaia brassicicola): H (H shows more than 50% of control values)
Test B control value (Botrytis cinerea; Gray mold on tomato): H (H shows more than 50% of control values)
Test G control value (Plasmopara viticola; [7]): H (H shows more than 50% of control values)

Cn1c(-c2c(F)cccc2F)c(-c2ccc(Cl)cc2Cl)cc(Cl)c1=O [Compound 348]
Test E control value (brown rust on wheat) (Puccinia recondita; 250 ppm spray): L (L shows 50% or less of control values)
Test D control value (powdery mildew on barley) ([1]; 250 ppm spray): L (L shows 50% or less of control values)
Test C control value (Alternaria sooty spot on cabbage) (Alternaia brassicicola; 250 ppm spray): L (L shows 50% or less of control values)
Test B control value (gray mold on tomato) (Botrytis cinerea; 250 ppm spray): L (L shows 50% or less of control values)
Test G control value (downy mildew on vine) (Plasmopara viticola; 7-10 days after inoculation): L (L shows 50% or less of control values)

CCN1C(=O)CCC(c2cccc(Cl)c2)=C1c1c(F)cccc1F [Compound 173]
Test E control value (Puccinia recondita; Brown rust on wheat): H (H shows more than 50% of control values)
Test D control value ([1]; Powdery mildew on barley): H (H shows more than 50% of control values)
Test C control value (Alternaia brassicicola): H (H shows more than 50% of control values)
Test B control value (Botrytis cinerea; Gray mold on tomato): H (H shows more than 50% of control values)
Test G control value (Plasmopara viticola; [7]): H (H shows more than 50% of control values)

CCn1c(-c2c(F)cccc2F)c(-c2cccc(C)c2)cc(Cl)c1=O [Compound 220]
Test E control value (brown rust on wheat) (Puccinia recondita; 250 ppm spray): L (L shows 50% or less of control values)
Test D control value (powdery mildew on barley) ([1]; 250 ppm spray): L (L shows 50% or less of control values)
Test C control value (Alternaria sooty spot on cabbage) (Alternaia brassicicola; 250 ppm spray): L (L shows 50% or less of control values)
Test B control value (gray mold on tomato) (Botrytis cinerea; 250 ppm spray): L (L shows 50% or less of control values)
Test G control value (downy mildew on vine) (Plasmopara viticola; 7-10 days after inoculation): L (L shows 50% or less of control values)

CCn1c(-c2c(F)cc(OC)cc2F)c(-c2cc(F)ccc2Cl)cc(C)c1=O [Compound 479]
Test E (control value class) (Puccinia recondita; [3]): H (H shows more than 50% of control values)
Test D (control value class) [1, 4]: H (H shows more than 50% of control values)
Test C (control value class) (Alternaia brassicicola; 250 ppm spray): H (H shows more than 50% of control values)
Test B (control value class) (Botrytis cinerea; [5]): H (H shows more than 50% of control values)
Test G (control value class) (Plasmopara viticola; [6]): H (H shows more than 50% of control values)

CCCOc1ccc(Cl)c(-c2ccc(=O)n(C)c2-c2c(F)cccc2F)c1 [Compound 241]
Test E control value (brown rust on wheat) (Puccinia recondita; 250 ppm spray): H (H shows more than 50% of control values)
Test D control value (powdery mildew on barley) ([1]; 250 ppm spray): H (H shows more than 50% of control values)
Test C control value (Alternaria sooty spot on cabbage) (Alternaia brassicicola; 250 ppm spray): H (H shows more than 50% of control values)
Test B control value (gray mold on tomato) (Botrytis cinerea; 250 ppm spray): H (H shows more than 50% of control values)
Test G control value (downy mildew on vine) (Plasmopara viticola; 7-10 days after inoculation): H (H shows more than 50% of control values)

O=c1ccc(-c2cc(F)ccc2Cl)c(-c2c(F)cccc2F)n1CC(F)F [Compound 391]
Test E (control value class) (Puccinia recondita; [3]): H (H shows more than 50% of control values)
Test D (control value class) [1, 4]: H (H shows more than 50% of control values)
Test C (control value class) (Alternaia brassicicola; 250 ppm spray): H (H shows more than 50% of control values)
Test B (control value class) (Botrytis cinerea; [5]): H (H shows more than 50% of control values)
Test G (control value class) (Plasmopara viticola; [6]): L (L shows 50% or less of control values)

CCn1c(-c2c(F)cc(F)cc2F)c(-c2ccccc2Cl)cc(Br)c1=O [Compound 683]
Test E (control value class, brown rust on wheat) (Puccinia recondita): H (H shows more than 50% of control values)
Test D (control value class, powdery mildew on barley) [1]: H (H shows more than 50% of control values)
Test C (control value class, Alternaria sooty spot on cabbage) (Alternaia brassicicola): H (H shows more than 50% of control values)
Test B (control value class, gray mold on tomato) (Botrytis cinerea): H (H shows more than 50% of control values)
Test G (control value class, downy mildew on vine) (Plasmopara viticola; [2]): L (L shows 50% or less of control values)

COc1cc(F)c(-c2c(-c3cc(F)cc(F)c3Cl)cc(Cl)c(=O)n2C)c(F)c1 [Compound 677]
Test E (control value class, brown rust on wheat) (Puccinia recondita): H (H shows more than 50% of control values)
Test D (control value class, powdery mildew on barley) [1]: H (H shows more than 50% of control values)
Test C (control value class, Alternaria sooty spot on cabbage) (Alternaia brassicicola): H (H shows more than 50% of control values)
Test B (control value class, gray mold on tomato) (Botrytis cinerea): H (H shows more than 50% of control values)
Test G (control value class, downy mildew on vine) (Plasmopara viticola; [2]): H (H shows more than 50% of control values)

CCn1c(-c2c(F)cc(OC)cc2F)c(-c2cc(F)cc(F)c2)cc(Cl)c1=O [Compound 798]
Test E (control value class) (Puccinia recondita; Brown rust on wheat, control value=100{1-(n/3)}): H (H shows more than 50% of control values)
Test D (control value class) ([1]; Powdery mildew on barley, control value=100{1-(n/3)}): H (H shows more than 50% of control values)
Test C (control value class) (Alternaia brassicicola; control value=100{1-(n/3)}): H (H shows more than 50% of control values)
Test B (control value class) (Botrytis cinerea; Gray mold on tomato, control value=100{1-(n/3)}): H (H shows more than 50% of control values)
Test G (control value class) (Plasmopara viticola; Downy mildew on vine, 2.5 ml/pot, evaluated 7-10 days after inoculation): L (L shows 50% or less of control values)

Cn1c(-c2c(F)cccc2F)c(-c2cc(OCC3CC3)ccc2Cl)ccc1=O [Compound 238]
Test E control value (brown rust on wheat) (Puccinia recondita; 250 ppm spray): H (H shows more than 50% of control values)
Test D control value (powdery mildew on barley) ([1]; 250 ppm spray): H (H shows more than 50% of control values)
Test C control value (Alternaria sooty spot on cabbage) (Alternaia brassicicola; 250 ppm spray): H (H shows more than 50% of control values)
Test B control value (gray mold on tomato) (Botrytis cinerea; 250 ppm spray): H (H shows more than 50% of control values)
Test G control value (downy mildew on vine) (Plasmopara viticola; 7-10 days after inoculation): H (H shows more than 50% of control values)
